{
  "source": "PubChem BioAssay AID1508623",
  "about": "(National Center for Advancing Translational Sciences (NCATS), 2021)",
  "note": "The whole screen tested about 48,000 compounds, of which about 450 (0.94%) were called active. The shares of active, inactive and inconclusive entries below differ from those in the screen. Calls come from the whole dose curve; as a rule, active = well fitted inhibition curve with a large enough effect; inconclusive = small, poorly fitted or top-dose-only effect; inactive = no such curve, though single readings can be large or run the other way. Potencies of inconclusive entries are doubtful fits and often do not repeat. Potency is the fitted concentration of half-maximal effect; tags give direction and shape of the fitted curve.",
  "data": [
    {"experiment": "Primary qHTS for Identification of Small Molecule Inhibitors of Huntingtin Promoter Activity; note: nearly all actives have a fitted effect of over 50% in size", "details": "HEK293 HTT promoter firefly luciferase reporter (activity 0% = vehicle and -100% = no light), 24 h; series mostly up to 57.5 µM", "summary_of_the_method": "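Firefly luciferase signal from promoter-reporter HEK293 cells was scaled between vehicle (0%) and zero RLU (-100%). Compounds were tested at final concentrations of up to 57.5 uM over 24 h at 37 degrees C. PTC124 at 50 uM final served as control inhibitor.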", "values": [
      {"molecule": "CCCSc1oc(-c2cccs2)nc1S(=O)(=O)c1ccc(Cl)cc1", "Potency": "inconclusive: 22.4 µM [inhibitor, partial curve, poor fit]"},
      {"molecule": "COc1cccc(CNC(=O)c2nn(-c3ccccc3Cl)nc2CO)c1", "Potency": "inconclusive: 39.8 µM [inhibitor, partial curve, poor fit]"},
      {"molecule": "COc1ccc(S(=O)(=O)c2c(Nc3ccc(F)cc3)sc(C(=O)c3ccc4c(c3)OCO4)c2N)cc1", "Potency": "inconclusive: 11.2 µM [inhibitor, partial curve]"},
      {"molecule": "COc1ccc(N2CCN(C(=O)c3ccc4c(c3)N(Cc3ccc(F)cc3)C(=O)c3ccccc3S4=O)CC2)cc1", "note": "(centres undefined)", "Potency": "inconclusive: 39.8 µM [inhibitor, single point]"},
      {"molecule": "COc1ccc(-c2cn3c(n2)sc2cc(C(=O)NCCCN4CCCCCC4)ccc23)cc1", "Potency": "inconclusive: 10 µM [inhibitor, partial curve]"},
      {"molecule": "CN1CCN(c2oc(-c3ccc(COc4ccc(Cl)cc4)o3)nc2C#N)CC1", "Potency": "inconclusive: 39.8 µM [inhibitor, single point]"},
      {"molecule": "N#Cc1nc(-c2ccc(COc3ccccc3)o2)oc1NCc1ccccc1", "Potency": "inconclusive: 14.1 µM [inhibitor, partial curve, poor fit]"},
      {"molecule": "Cc1ccc(NS(=O)(=O)c2ccc3c(c2)NC(=O)CCS3)cc1C", "Potency": "inconclusive: 35.5 µM [inhibitor, partial curve, poor fit]"},
      {"molecule": "Cc1cccc(OC(=O)c2cc(-c3ccc4c(c3)OCCO4)on2)c1", "Potency": "inactive"},
      {"molecule": "CCN(CC)S(=O)(=O)c1ccc(C(=O)Nc2nc3c(Cl)cc(Cl)cc3s2)cc1", "Potency": "inconclusive: 7.08 µM [inhibitor, full curve, poor fit]"},
      {"molecule": "CCCCCCC[N+](CC)(CC)CCCCc1ccc(Cl)cc1", "Potency": "inconclusive: 10 µM [inhibitor, partial curve, poor fit]"},
      {"molecule": "Cc1ccc(-n2ncc(C(=O)Nc3ccc4c(c3)OCCO4)c2C2CCN(C(=O)OC(C)(C)C)CC2)cc1", "Potency": "inconclusive: 28.2 µM [inhibitor, partial curve, poor fit]"},
      {"molecule": "CCOC(=O)c1cnc2ccc(OC)cc2c1NCCc1ccc(OC)c(OC)c1", "Potency": "inconclusive: 35.5 µM [inhibitor, partial curve, poor fit]"},
      {"molecule": "Cc1ccccc1-c1nc2cc(NC(=O)c3cccc(OCCC(C)C)c3)ccc2o1", "Potency": "inconclusive: 3.98 µM [inhibitor, single point]"},
      {"molecule": "COc1cc(NC(=O)c2ccc(-c3nc(COc4ccccc4)c(C)o3)cc2)cc(OC)c1", "Potency": "active: 14.1 µM"},
      {"molecule": "O=C(Nc1ccccc1Cl)c1cc(S(=O)(=O)N2CCC3(CC2)OCCO3)ccc1F", "Potency": "inconclusive: 22.4 µM [inhibitor, partial curve, poor fit]"},
      {"molecule": "CCOc1ccc(N(CC)S(=O)(=O)N2CCCC(C(=O)Nc3ccc(OC)c(OC)c3)C2)cc1", "note": "(centres undefined)", "Potency": "inconclusive: 20 µM [inhibitor, partial curve]"},
      {"molecule": "CCn1cc2nc(SCc3ccccc3Cl)n(CCc3ccccc3)c(=O)c2n1", "Potency": "inconclusive: 6.31 µM [inhibitor, partial curve, poor fit]"},
      {"molecule": "COc1cccc(CNC(=O)c2ccc3nc(N4CCCCC4)sc3c2)c1OC", "Potency": "inconclusive: 20 µM [inhibitor, partial curve]"},
      {"molecule": "Cc1ccc(CN2CCSc3ccc(C(=O)N4CCN(c5ccc(Cl)cc5)CC4)cc32)cc1", "Potency": "inconclusive: 17.8 µM [inhibitor, partial curve, poor fit]"},
      {"molecule": "COc1ccccc1NC(=O)c1cc(S(=O)(=O)NCCc2ccccc2)ccc1F", "Potency": "inconclusive: 20 µM [inhibitor, single point]"},
      {"molecule": "O=S(=O)(Nc1ccc2nc(-c3ccc(F)cc3)oc2c1)c1ccccc1", "Potency": "inactive"},
      {"molecule": "CCc1ccc(NC(=O)C2CCN(c3nc(-c4ccc(OC)cc4)no3)CC2)cc1", "Potency": "inconclusive: 2.24 µM [inhibitor, partial curve, poor fit]"},
      {"molecule": "CCCS(=O)(=O)c1nc(S(=O)(=O)c2ccc(C)cc2)c(N(CC)CC)s1", "Potency": "inactive"},
      {"molecule": "O=C(CSC1=Nc2ccccc2C2=NC(CC(=O)NC3CCCCC3)C(=O)N12)Nc1ccc(F)cc1", "note": "(centres undefined)", "Potency": "inconclusive: 39.8 µM [inhibitor, single point]"},
      {"molecule": "COc1ccc(-n2c(SCC(=O)Nc3ccc(Cl)c(C)c3)nc3n[nH]c(C)c3c2=N)cc1", "Potency": "inconclusive: 14.1 µM [inhibitor, partial curve, poor fit]"},
      {"molecule": "CCOC(=O)c1c(NC(=O)c2ccc(S(=O)(=O)N3CCC(C)CC3)cc2)sc2c1CCN(C)C2", "Potency": "inconclusive: 31.6 µM [inhibitor, partial curve]"},
      {"molecule": "Cc1cc(C)cc(-n2ccnc2SCC(=O)Nc2nnc(C)s2)c1", "Potency": "inconclusive: 25.1 µM [inhibitor, partial curve, poor fit]"},
      {"molecule": "CCS(=O)(=O)N1CCc2cc(C(=O)Nc3ccc(OC)c(Cl)c3)ccc21", "Potency": "inconclusive: 39.8 µM [inhibitor, single point]"},
      {"molecule": "Cc1ccc(-c2nc3scc(CCNC(=O)Cc4ccc(Cl)cc4)n3n2)cc1", "Potency": "inconclusive: 39.8 µM [inhibitor, single point]"},
      {"molecule": "CCOc1ccc(N(C(=O)CC(C)C)S(=O)(=O)c2ccc3c(c2)oc(=O)n3C)cc1", "Potency": "inconclusive: 2.82 µM [inhibitor, partial curve, poor fit]"},
      {"molecule": "CCOc1ccc(CC(=O)NCCc2csc(-c3ccc(C)cc3)n2)cc1", "Potency": "inconclusive: 22.4 µM [inhibitor, partial curve, poor fit]"},
      {"molecule": "COc1ccc(CCNS(=O)(=O)c2ccc3c(c2)CC(C)N3C(=O)C2CCC2)cc1OC", "note": "(centres undefined)", "Potency": "inconclusive: 2.51 µM [inhibitor, partial curve, poor fit]"},
      {"molecule": "CCN(CC)c1ccc(NS(=O)(=O)c2ccc(-c3cnc(C4CC4)o3)cc2)c(C)c1", "Potency": "inconclusive: 25.1 µM [inhibitor, partial curve, poor fit]"},
      {"molecule": "CCCn1c(SCc2nc(-c3ccc(OC)cc3OC)no2)nnc1-c1ccc(Cl)cc1", "Potency": "inconclusive: 28.2 µM [inhibitor, partial curve, poor fit]"},
      {"molecule": "CCC1CN(C(=O)N2CCC(C(=O)NCCc3ccc(Cl)cc3)CC2)c2ccccc2O1", "note": "(centres undefined)", "Potency": "inconclusive: 28.2 µM [inhibitor, single point]"},
      {"molecule": "Cn1c(SCc2ccc(F)cc2)nc2ccc(C(=O)NCc3ccc(Cl)cc3)cc21", "Potency": "inconclusive: 15.8 µM [inhibitor, partial curve, poor fit]"},
      {"molecule": "COc1ccc(-c2noc(CN(C(=O)COc3cc(C)c(Br)c(C)c3)C(C)C)n2)cc1", "Potency": "inconclusive: 39.8 µM [inhibitor, single point]"},
      {"molecule": "CCOC(=O)c1[nH]c2c(c1Cc1ccccc1)C(=O)CC(c1ccc(Cl)cc1)C2", "note": "(centres undefined)", "Potency": "inconclusive: 22.4 µM [inhibitor, single point]"},
      {"molecule": "Cc1ccc(CNC(=O)c2ccc3nc(N4CCCCC4)sc3c2)cc1", "Potency": "inconclusive: 0.316 µM [inhibitor, full curve]"},
      {"molecule": "CCOC(=O)c1ccc(NC(=O)c2c(NC(C)=O)sc3c2CCC(C)C3)cc1", "note": "(centres undefined)", "Potency": "inconclusive: 17.8 µM [inhibitor, partial curve]"},
      {"molecule": "COc1ccc(OC)c(CCNC(=O)c2ccc3c(c2)N(Cc2ccc(C)cc2)CCS3)c1", "Potency": "inconclusive: 22.4 µM [inhibitor, partial curve, poor fit]"},
      {"molecule": "Cc1ccc(-c2nnc(Nc3ccc(O)cc3)c3ccccc23)cc1S(=O)(=O)N1CCN(C)CC1", "Potency": "inconclusive: 35.5 µM [inhibitor, single point]"},
      {"molecule": "Cc1ccc(C(=O)NCCc2ccc(Cl)cc2)cc1-n1c(C)nc2cccnc21", "Potency": "inconclusive: 22.4 µM [inhibitor, single point]"},
      {"molecule": "CCOc1cccc(CNC(=O)c2ccc(N3CCCC3)c(NC(=O)NCc3ccc(F)cc3)c2)c1", "Potency": "inconclusive: 22.4 µM [inhibitor, partial curve, poor fit]"},
      {"molecule": "CCN(CC)CCOC(=O)c1ccc(NC(=O)Cn2ncc3c([nH]c4ccc(C)cc43)c2=O)cc1", "Potency": "inactive"},
      {"molecule": "Cc1ccc(-n2nc(C)c(C(=O)NCCCN3CCN(c4ccc(F)cc4)CC3)c2-n2cccc2)cc1", "Potency": "inconclusive: 28.2 µM [inhibitor, partial curve, poor fit]"},
      {"molecule": "Cc1ccc(Nc2sc(C(=O)c3ccccc3)c(N)c2S(=O)(=O)c2ccccc2)c(C)c1", "Potency": "inconclusive: 17.8 µM [inhibitor, single point]"},
      {"molecule": "COc1ccc(CCNC(=O)c2c(C)nn(-c3ccc(F)cc3)c2-n2cccc2)c(OC)c1OC", "Potency": "inconclusive: 31.6 µM [inhibitor, partial curve, poor fit]"},
      {"molecule": "COc1ccc(-n2ncc(C(=O)Nc3ccc4c(c3)OCCO4)c2C2CCN(C(=O)OC(C)(C)C)CC2)cc1", "Potency": "inconclusive: 35.5 µM [inhibitor, single point]"},
      {"molecule": "CCOc1ccc(CNC(=O)C2CCCN(S(=O)(=O)N(CC)c3ccc(OCC)cc3)C2)cc1", "note": "(centres undefined)", "Potency": "inconclusive: 15.8 µM [inhibitor, partial curve, poor fit]"},
      {"molecule": "Cc1ccc(S(=O)(=O)N2CCC(C(=O)Nc3ccc(Oc4ccccc4)cc3)CC2)cc1", "Potency": "inconclusive: 1.58 µM [inhibitor, full curve, poor fit]"},
      {"molecule": "Cc1nn2c(=O)cc(COC(=O)c3ccc(NC(=O)c4cccs4)cc3)nc2s1", "Potency": "inconclusive: 31.6 µM [inhibitor, partial curve, poor fit]"},
      {"molecule": "Cc1cc(C)cc(NC(=O)CN2C(=O)CCc3cc(S(=O)(=O)N4CCCCC4)ccc32)c1", "Potency": "inconclusive: 31.6 µM [inhibitor, partial curve, poor fit]"}
    ]}
  ]
}
